Experimental findings from PubChem BioAssay (NCI) are described below.

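Tested at 5 concentrations; 48 h exposure; 96-well plates; endpoints linearly interpolated, else capped at highest concentration. GI50 is the concentration that inhibits growth by half. TGI is the concentration that stops growth completely.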

The assay concerns NCI-H322M lung. As to the kind of experiment: NCI-60 cell line screen, 48 h.
Take `COc1ccccc1/C=C/C=N/NC1=NC2C(S1)N(C)C(=O)N2c1ccccc1` (stereo unspecified): the GI50 was 839 nM and the TGI is > 100000 nM.

Consider `CN(C)CCNC(=O)c1ccc(-c2nc3ccc4[nH]ncc4c3c3c2COCC3)cc1`, for which the GI50 was 1330 nM and the TGI worked out at 6510 nM.

For `N#Cc1c(-c2ccc(Cl)cc2)nc(SCc2ccc([N+](=O)[O-])cc2)nc1N1CCNCC1`, the GI50 is 1600 nM and the TGI was determined as 2960 nM.
